{
  "source": "paper PMC12136788",
  "binders": {"B1": {"name": "chr20:1470740:1471132:-|three_prime_utr|ENSG00000196209|control|control|control (ssRNA)", "RNA": "GGGAGUUCUACAGUCCGACGAUCUCAGUUCUUGUCUGCUUGGAAGAAAGAUUUCAGCCAAGAGACACACAGCAAAGGUGAAGUAGCAGAGUUUAUUGAAGAAAGAUAAAGUACGUUCCUAGAAAGGAGUGGGCUGACCUGGCUCAACAGAGGAUUGAGCAUCA"}, "B2": {"name": "chr11:20048915:20049016:+|CDS|ENSG00000166833|unk|FALSE|bound_elsewhere (ssRNA)", "RNA": "GGGAGUUCUACAGUCCGACGAUCGAGCAGUGGGAGCAGCAGUCCUCUCUACAGCAAGAAUGUGGACCUCAACCAGUCUCCGCUAGCCUCCAGCCCCAGCUCAGCCCACUCGGCCCCUUCCAACAGCCUCACCUGGGGCACCAACAACAGAGGAUUGAGCAUCA"}, "B3": {"name": "chr15:22866942:22867043:+|3pUTR|ENSG00000140157|msi1|FALSE|unique (ssRNA)", "RNA": "GGGAGUUCUACAGUCCGACGAUCUAAAGAUUUCACUAAUUUGGACCAAGAAAUUACUUUUCUUGUAUUUAAACAAACAAUGGUAGCUCACUAAAAUGACCUCAGCACAUGACGAUUUCUAUUAACAUUUUAUUGUUGUAGAAGCAACAGAGGAUUGAGCAUCA"}, "B4": {"name": "ENSG00000214517:stop:overlap|stop_codon|ENSG00000214517|stop_codon|NA|stop_codon (ssRNA)", "RNA": "GGGAGUUCUACAGUCCGACGAUCUGAUCCGGCACAGGUUUGCAGAACCCAUCGGUGGAUUCCAGUGUGUGUUUCCUGGCUGUUAGUGACCUGCUGUCCACCCCUCCUCAACAUCGAGCUCUGUUGUAAAUACGUCGCACCAGACAACAGAGGAUUGAGCAUCA"}, "B5": {"name": "chr12:49796586:49796721:-|CDS|ENSG00000167566|msi1|total|mutant (ssRNA)", "RNA": "GGGAGUUCUACAGUCCGACGAUCGAGGCCCACAGGCCAGGCUUCGGUGCUACCUCAGAGGGCCAGGGGCCCCUCCCCUUCCUCCGCAUGUUCAUGGGUGCUGGGGAUGCCCCACUGGGCUCUCGGCCUGGCCACCCCCAUUCCCAACAGAGGAUUGAGCAUCA"}, "B6": {"name": "chr1:214663888:214664008:+|3pUTR|ENSG00000117724|msi1|total|mutant (ssRNA)", "RNA": "GGGAGUUCUACAGUCCGACGAUCAGGAGAAAACAAUUCCUCCGAAGUCUUAAAUAUAUUGUACUCUUCCGAUCUCCCAUGUGCCGGUAUUGAAAAAGUUUGGAAGCACUGAUCACCUGUCCGCAUUGCCAUUCCUCUACUGCACAACAGAGGAUUGAGCAUCA"}, "B7": {"name": "ENSG00000052841:stop:overlap|stop_codon|ENSG00000052841|stop_codon|NA|stop_codon (ssRNA)", "RNA": "GGGAGUUCUACAGUCCGACGAUCAGAACCGAAUCCAGACCAUCCAGUGUCACUUAAUGCUGAAGAAGGGACGGCGCUCUCCUUAGUGCACUUCUUCCUUCUCUCUUUCUCUUUACUCAUGCUCUAAAAAAAAAGAAUAAGAAACAACAGAGGAUUGAGCAUCA"}, "B8": {"name": "chr2:240467638:240467855:+|3pUTR|ENSG00000063660|msi1|total|mutant (ssRNA)", "RNA": "GGGAGUUCUACAGUCCGACGAUCGGACGGAGGUCCCCGGUUGCUGGUCAGGUCCCCAUGGCUUGUUCUCUGGAACCUGACUUCCGAUGUUUUGGGAUCAGGAGCCCCCAACACAGGCAAGUCCACCCCAUAAUAACCCUGCCACAACAGAGGAUUGAGCAUCA"}, "B9": {"name": "chr4:75812186:75812332:+|CDS|ENSG00000138768|unk|FALSE|unique (ssRNA)", "RNA": "GGGAGUUCUACAGUCCGACGAUCAGAGCAGCUGGAUUCAUCUAAUAGUACCAUUGCCAUUUUACAAACUGAGAAAGACAAACUAGAGUUGGAAAUUACAGAUUCUAAAAAAGAACAAGAUGAUCUCUUGGUGCUCUUGGCCGACAACAGAGGAUUGAGCAUCA"}, "B10": {"name": "chr7:92612324:92612425:-|3pUTR|ENSG00000105810|msi1|FALSE|bound_elsewhere (ssRNA)", "RNA": "GGGAGUUCUACAGUCCGACGAUCAUCCAACACAAGCAGUCUUGCCGUUAGGGCAUUUUGAAGCAGAUAGUAGAGUAAGAACUUAGUGACUACAGCUUAUUCUUCUGUAACAUAUGGUUUCAAACAUCUUUGCCAAAAGCUAAGCAACAGAGGAUUGAGCAUCA"}, "B11": {"name": "ENSG00000070961:be:win_2051|CDS|ENSG00000070961|bound_else_gene|NA|bound_elsewhere_windowed (ssRNA)", "RNA": "GGGAGUUCUACAGUCCGACGAUCAUCCUGUGAGACCUGAGGUGCCAGAUGCAAUUAAAAAGUGUCAGAGGGCUGGAAUUACUGUGCGGAUGGUCACUGGUGAUAAUAUUAAUACUGCUCGGGCCAUUGCUACCAAAUGUGGUACAACAGAGGAUUGAGCAUCA"}, "B12": {"name": "chr11:35619468:35619569:+|CDS|ENSG00000179431|unk|FALSE|unique (ssRNA)", "RNA": "GGGAGUUCUACAGUCCGACGAUCCCCCCUCCGGGAUGCCGGGGGUGAGCUGGCCAACCUCAGCCAGGCGGAGCUGGUGGACCUAGUACAAUGGACCGACUUAAUCCUUUUCGACUACCUGACGGCCAACUUCGACCGGCUCGUCAACAGAGGAUUGAGCAUCA"}, "B13": {"name": "chr9:93565116:93565217:+|3pUTR|ENSG00000048828|unk|total|mutant (ssRNA)", "RNA": "GGGAGUUCUACAGUCCGACGAUCAUAUACAAUACAUCAUACAUACUUUACAAGCAAGUUAAAUGGAGAUAAAGUUGAAAUCACCGAAGAUGCAAAUGACCUUUCAAAAUCAACACAAUGUGUUCUGAAACUUUCGUGACUAAUCAACAGAGGAUUGAGCAUCA"}, "B14": {"name": "ENSG00000070961:be:win_6351|3pUTR|ENSG00000070961|bound_else_gene|NA|bound_elsewhere_windowed (ssRNA)", "RNA": "GGGAGUUCUACAGUCCGACGAUCCAGAUGUCAGUUUUGAACCAAGAAUUGGUGAUUUGUUUAUAAGAAAAAAACUGGCUUCAUUUCUGUGAAAUUGCUCUUUGAAAAUUUCUUUUUACACGUGUAAGCCAACUGAGAUACCGUCAACAGAGGAUUGAGCAUCA"}, "B15": {"name": "chr11:134247321:134247422:+|3pUTR|ENSG00000151502|unk|FALSE|unique (ssRNA)", "RNA": "GGGAGUUCUACAGUCCGACGAUCCCUUUUCAGAGCAUGAGGUCAGGCUCUGUAUCCCUCCUUUUCCUAGCUGAUAUUCUAACUAGAAGCAUUUGUCAAUUCCUUUGCCUCCCAACUGACAACACACGUUCAUUUUCCAACCUUCAACAGAGGAUUGAGCAUCA"}, "B16": {"name": "chr5:172042892:172042993:-|3pUTR|ENSG00000072786|msi1|FALSE|unique (ssRNA)", "RNA": "GGGAGUUCUACAGUCCGACGAUCGAUUCUCCCGCUUCAACCUUGAGUAGCUGGGACGACAGAUACAUGCUACUGCACCCAGCUAGGUUAAGGUUCUGUAUACUCUGUCUUUCUAAAGCAAUUCCCUGGAAAUUUUCUCAACAUCAACAGAGGAUUGAGCAUCA"}, "B17": {"name": "chr11:92891788:92891889:+|3pUTR|ENSG00000165323|msi1|FALSE|bound_elsewhere (ssRNA)", "RNA": "GGGAGUUCUACAGUCCGACGAUCAUGAGGCUUUUUGGGUUCCAUUUGGUGGGUGGGGGAGGAAGUUAAAGUUGUUUGAACAUUAGAAAGAAUGUGAUUAUCUGGUUGGUUUUGUGUUUUCUGGUAAAUAUUCCAGUUGGUAAACAACAGAGGAUUGAGCAUCA"}, "B18": {"name": "chr16:58279996:58280223:-|three_prime_utr|ENSG00000103023|control|control|control (ssRNA)", "RNA": "GGGAGUUCUACAGUCCGACGAUCGUAAACUGAGAAUGCUGAGUGCCAGGCAUUCACCAUGCUGUUUUGAUGUCUGUUUUUGAUAGUUGCACACUGGGGCUGCCACGGAUAAGCCCAUGGCAUACACUGGGCUGGCUCUCCCUCCAACAGAGGAUUGAGCAUCA"}, "B19": {"name": "chr10:67912576:67912687:+|CDS|ENSG00000096717|unk|FALSE|unique (ssRNA)", "RNA": "GGGAGUUCUACAGUCCGACGAUCUUUUGAUGUAGAGCUUCUUGGAGACUGUGAUGUCAUAAUUAAUGAAUUGUGUCAUAGGUUAGGUGGUGAAUAUGCCAAACUUUGCUGUAACCCUGUAAAGCUUUCAGAAAUUACUGAAAACAACAGAGGAUUGAGCAUCA"}, "B20": {"name": "chr2:11642538:11642650:+|3pUTR|ENSG00000196208|unk|total|mutant (ssRNA)", "RNA": "GGGAGUUCUACAGUCCGACGAUCCGAAGAGUUGAUGUCAAUCUUUUUUUCCUAAGAAAAAAAGUCCGCGAGUAUUAAAUAUUCCGAUCAAUGUUUAUAAAAUGAUUACUUUGUAUAUCUCAUUAUUCCUAUUUUGGAAUAAAACAACAGAGGAUUGAGCAUCA"}, "B21": {"name": "chr19:4839056:4839157:-|3pUTR|ENSG00000105355|msi1|FALSE|unique (ssRNA)", "RNA": "GGGAGUUCUACAGUCCGACGAUCUCUAUAAUGCAGCUGUGCUCUGGAGUCCUCAACCCGGGGCUCAUUUCAAACUUAUUUUCUAGCCACUCCUCCCAGCUCUUCUGUGCUGUCCACUUGGGAAGCUAAGGCUCUCAAAACGGGCAACAGAGGAUUGAGCAUCA"}, "B22": {"name": "chr22:38866210:38866312:-|CDS|ENSG00000183741|unk|FALSE|bound_elsewhere (ssRNA)", "RNA": "GGGAGUUCUACAGUCCGACGAUCGACGGUCACAAUCAAGGAAUUCUGCAACCCUGAGGAUUUCGAGAAGGUGGCUGCUGGGGUAGCAGGCGCCGCUGGGGGCGGUGGCAGCAUUGGGGCGAGCAAGUGAGGGGGCUCCACCAACAACAGAGGAUUGAGCAUCA"}},
  "note": "The other results are listed elsewhere or left out.",
  "data": [
    {"molecular_target": "MSI1 full-length (mouse, UniProt Q61474 1-362)", "sequence (Q61474 whole entry)": "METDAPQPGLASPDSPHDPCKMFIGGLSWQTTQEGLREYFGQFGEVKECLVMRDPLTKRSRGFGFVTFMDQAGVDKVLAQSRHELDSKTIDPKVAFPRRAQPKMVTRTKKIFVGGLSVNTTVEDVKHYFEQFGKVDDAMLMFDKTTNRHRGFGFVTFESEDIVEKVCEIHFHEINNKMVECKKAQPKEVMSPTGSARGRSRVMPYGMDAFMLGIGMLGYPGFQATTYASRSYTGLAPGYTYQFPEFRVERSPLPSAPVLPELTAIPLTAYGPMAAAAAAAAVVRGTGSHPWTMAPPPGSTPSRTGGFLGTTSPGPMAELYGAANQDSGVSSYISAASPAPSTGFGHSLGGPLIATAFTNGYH", "assay": "nsRBNS (natural sequence RNA bind-n-seq); RBNS binding buffer (assumed for nsRBNS): 25 mM Tris pH 7.5, 150 mM KCl, 3 mM MgCl2, 0.01% Triton X-100, 500 ug/ml BSA, 20 U/ml SUPERase-In, 4 C; UNK is unkempt and MSI1 is Musashi-1; names of the RNAs are library labels; protein concentration not given here; high values mean tight binding", "units": {"binding signal": "enrichment R"}, "values": [
      {"binder": "B1", "binding signal": 0.631},
      {"binder": "B2", "binding signal": 0.631},
      {"binder": "B3", "binding signal": 0.998},
      {"binder": "B4", "binding signal": 0.383},
      {"binder": "B5", "binding signal": 0.321},
      {"binder": "B6", "binding signal": 0.406},
      {"binder": "B7", "binding signal": 0.61},
      {"binder": "B8", "binding signal": 0.376},
      {"binder": "B9", "binding signal": 0.957},
      {"binder": "B10", "binding signal": 2.88},
      {"binder": "B11", "binding signal": 0.429},
      {"binder": "B12", "binding signal": 0.37},
      {"binder": "B13", "binding signal": 0.485},
      {"binder": "B14", "binding signal": 0.312},
      {"binder": "B15", "binding signal": 1.18},
      {"binder": "B16", "binding signal": 0.423},
      {"binder": "B17", "binding signal": 1.1},
      {"binder": "B18", "binding signal": 0.44},
      {"binder": "B19", "binding signal": 0.795},
      {"binder": "B20", "binding signal": 0.529},
      {"binder": "B21", "binding signal": 0.751},
      {"binder": "B22", "binding signal": 0.51}
    ]}
  ]
}
